Results on 44 compounds are retold here after PMC4336329 (PLoS ONE, 2015).

The whole screen tested about 310,000 compounds, of which about 14,000 (4.5%) showed an effect of 50% or more. The effect is printed as a negative number. Some of the results follow.
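Further: peak tail current of the secondary pulse compared with the same well before compound.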

This test deals with human ether-à-go-go-related gene (hERG) potassium channel (human, UniProt Q12809). The experiment in a line: primary screen, population patch clamp on CHO cells stably expressing hERG.
Chain of human ether-à-go-go-related gene (hERG) potassium channel (Q12809 whole entry, looked up): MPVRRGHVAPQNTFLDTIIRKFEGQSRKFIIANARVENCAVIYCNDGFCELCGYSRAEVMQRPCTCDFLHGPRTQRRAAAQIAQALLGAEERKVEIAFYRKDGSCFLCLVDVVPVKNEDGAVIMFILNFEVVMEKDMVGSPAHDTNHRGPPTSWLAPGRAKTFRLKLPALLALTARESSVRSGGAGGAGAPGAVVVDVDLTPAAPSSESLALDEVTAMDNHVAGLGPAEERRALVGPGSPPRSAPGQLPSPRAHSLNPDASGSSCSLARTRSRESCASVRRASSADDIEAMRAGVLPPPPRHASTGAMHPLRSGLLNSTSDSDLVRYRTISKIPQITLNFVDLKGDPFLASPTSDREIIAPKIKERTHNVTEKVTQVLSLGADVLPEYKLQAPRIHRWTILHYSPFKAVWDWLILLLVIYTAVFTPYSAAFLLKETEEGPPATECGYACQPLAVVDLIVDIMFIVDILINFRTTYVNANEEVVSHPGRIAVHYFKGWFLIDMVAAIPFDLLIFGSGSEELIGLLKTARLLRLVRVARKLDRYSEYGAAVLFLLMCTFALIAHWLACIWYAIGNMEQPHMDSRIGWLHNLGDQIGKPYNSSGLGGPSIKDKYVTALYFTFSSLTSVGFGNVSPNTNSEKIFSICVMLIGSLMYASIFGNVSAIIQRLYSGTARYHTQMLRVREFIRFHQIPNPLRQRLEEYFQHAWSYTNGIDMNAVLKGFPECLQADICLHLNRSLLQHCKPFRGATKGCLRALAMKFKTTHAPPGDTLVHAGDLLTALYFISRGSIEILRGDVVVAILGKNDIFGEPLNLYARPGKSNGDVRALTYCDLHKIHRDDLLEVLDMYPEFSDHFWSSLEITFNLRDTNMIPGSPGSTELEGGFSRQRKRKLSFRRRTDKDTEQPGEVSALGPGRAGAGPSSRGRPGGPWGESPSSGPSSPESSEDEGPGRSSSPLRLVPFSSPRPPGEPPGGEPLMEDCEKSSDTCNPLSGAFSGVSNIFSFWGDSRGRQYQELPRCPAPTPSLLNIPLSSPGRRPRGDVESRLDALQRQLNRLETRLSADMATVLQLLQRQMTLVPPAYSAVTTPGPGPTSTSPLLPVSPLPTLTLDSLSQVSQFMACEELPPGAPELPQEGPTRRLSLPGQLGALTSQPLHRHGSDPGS
As for `CC(=O)N1CCC2(CC1)C/C(=N\NC(=S)Nc1ccc(C)cc1)c1cc(O)ccc1O2`, the “hERG current change (%, negative = inhibition) at 10uM” value is listed as -70.8%.

For the compound `O=C(c1cc(N2C(=O)C3C4CCC(C4)C3C2=O)ccc1Cl)N1CCCCCC1` (centres unmarked), the “hERG current change (%, negative = inhibition) at 10uM” value stood at 3.82%.

As for `O=C(CSc1nnc(-c2ccccc2)n1Cc1ccccc1)NNC(=O)c1ccccc1O`, the “hERG current change (%, negative = inhibition) at 10uM” value was determined as 16.1%.

For the compound `Cc1cc(C)c2nc(NC(=O)C3CC(=O)N(Cc4ccco4)C3)sc2c1` (centres unmarked), the “hERG current change (%, negative = inhibition) at 10uM” value is -40.4%.

Consider `Cc1c(NC(=O)C(C)Sc2nccn2C)c(=O)n(-c2ccccc2)n1C` (centres unmarked), for which the “hERG current change (%, negative = inhibition) at 10uM” value was 12.4%.

Turning to `CCOC(=O)c1ccc2[nH]c3ccccc3c2c1`, the “hERG current change (%, negative = inhibition) at 10uM” value is on record as 15%.

Consider `CCOc1cc(CNC(CC)CO)ccc1OCC(=O)Nc1cccc(C(F)(F)F)c1` (centres unmarked), for which the “hERG current change (%, negative = inhibition) at 10uM” value is -68.3%.

In the case of `CCOC(=O)NCc1ccc2c(c1)OCO2`, the “hERG current change (%, negative = inhibition) at 10uM” value is 19.7%.

Regarding `C=CCSc1nnc(-c2ccccc2N=Cc2c(C)[nH]n(-c3ccccc3)c2=O)c(=O)[nH]1`, the “hERG current change (%, negative = inhibition) at 10uM” value was -26.5%.

With `CCN(C(=O)c1ccc2c(Cl)c3c(nc2c1)CCC3)c1ccc(C)c(C)c1`, the “hERG current change (%, negative = inhibition) at 10uM” value is recorded as 2.59%.

In the case of `CCCn1c(SCC(=O)c2ccc3c(c2)OCCO3)n[nH]c1=O`, the “hERG current change (%, negative = inhibition) at 10uM” value was determined as 22.6%.

On to `S=C(c1ccc(-c2cc(Cl)ccc2Cl)o1)N1CCCCC1`, for which the “hERG current change (%, negative = inhibition) at 10uM” value was determined as 5.57%.

As for `CCC(=O)NCc1ccc2[nH]c(C)cc2c1`, the “hERG current change (%, negative = inhibition) at 10uM” value came out at 37%.

For `COCCNC(=O)c1ccccc1NC(=O)c1ccccc1N(C)S(=O)(=O)c1ccccc1`, the “hERG current change (%, negative = inhibition) at 10uM” value is reported as -3.05%.

For the compound `COc1ccc(C)cc1S(=O)(=O)NCc1cccs1`, the “hERG current change (%, negative = inhibition) at 10uM” value was -17.6%.

Turning to `c1ccc2c(CNC3CCCCCC3)c[nH]c2c1`, the “hERG current change (%, negative = inhibition) at 10uM” value is reported as -20.8%.

Regarding `O=C1CC(NS(=O)(=O)c2cccnc2)CN1c1ccc(Cl)cc1` (centres unmarked), the “hERG current change (%, negative = inhibition) at 10uM” value is given as -12%.

As for `CCCn1c(CCNc2nc(-c3ccc(Cl)c([N+](=O)[O-])c3)cs2)nc2cc(Cl)c(Cl)cc21`, the “hERG current change (%, negative = inhibition) at 10uM” value is -25.5%.

`CCCCC1=CC2=CC(=O)C(C)(OC(=O)CC)C(=O)C2=CN1Cc1ccccc1` (centres unmarked): the “hERG current change (%, negative = inhibition) at 10uM” value is -42.9%.

As for `CCOC(=O)c1c(C)nc(SCC(N)=O)c(C#N)c1-c1ccccc1`, the “hERG current change (%, negative = inhibition) at 10uM” value was 9.96%.

Take `COc1cc(C(=O)OCC(=O)NCC2CCCCC2)ccc1OCC(C)C`: the “hERG current change (%, negative = inhibition) at 10uM” value was 1.68%.

Turning to `C=CCNC(=S)NNC(=O)c1ccc(C)c(Cl)c1`, the “hERG current change (%, negative = inhibition) at 10uM” value worked out at 53.4%.

`CCc1ccc(N2C(=O)C3NN=C(C(=O)OCc4ccccc4)C3C2=O)cc1` (centres unmarked): the “hERG current change (%, negative = inhibition) at 10uM” value was -2.25%.

On to `CN1C(=S)SC(C)(NO)C1(C)C` (centres unmarked), for which the “hERG current change (%, negative = inhibition) at 10uM” value came to 18.9%.

`COCCCNc1nc(CC(C)C)nc2c1nnn2Cc1ccccc1`: the “hERG current change (%, negative = inhibition) at 10uM” value is -2.28%.

For the compound `COc1ccc(C2NCc3ccccc3-n3cccc32)cc1.Cl` (centres unmarked), the “hERG current change (%, negative = inhibition) at 10uM” value is given as -21.5%.

Regarding `CC1(C)C(=O)Nc2ccccc2N1C(=O)COC(=O)c1cccnc1`, the “hERG current change (%, negative = inhibition) at 10uM” value is on record as -4.73%.

As for `O=C(Nc1ncccc1O)c1ccc(C(=O)c2ccccc2)cc1`, the “hERG current change (%, negative = inhibition) at 10uM” value was 6.73%.

In the case of `O=C(COc1ccc(Br)cc1)Nc1nc(-c2cccnc2)cs1`, the “hERG current change (%, negative = inhibition) at 10uM” value stood at 4.69%.

Take `Nc1cc(N)nc(SCC(=O)N2CCN(S(=O)(=O)c3ccccc3)CC2)n1`: the “hERG current change (%, negative = inhibition) at 10uM” value was found to be 8.13%.

`Brc1ccc(-c2nnc3sc(CNCc4ccc5c(c4)OCO5)cn23)cc1`: the “hERG current change (%, negative = inhibition) at 10uM” value was -16.3%.

With `CCOC(=O)c1cnc(-n2nc(C)cc2C)nc1NNc1ncc(-c2ccccc2)cn1`, the “hERG current change (%, negative = inhibition) at 10uM” value is -17.8%.

With `O=C(C1CCCCN1S(=O)(=O)c1ccccc1)N1CCN(C(c2ccccc2)c2ccccc2)CC1` (centres unmarked), the “hERG current change (%, negative = inhibition) at 10uM” value was -3.5%.

Turning to `CCc1ccccc1NC(=O)CN(C)C(=O)CN1C(=O)NC2(CCCCCC2)C1=O`, the “hERG current change (%, negative = inhibition) at 10uM” value is on record as -4.57%.

As for `C=C(C)CN(CC)C(=O)c1ccc(OC2CCN(S(=O)(=O)N(C)C)CC2)cc1`, the “hERG current change (%, negative = inhibition) at 10uM” value was 12.2%.

In the case of `O=C(CN1C(=O)c2cccc3cccc1c23)NCC1CCCO1` (centres unmarked), the “hERG current change (%, negative = inhibition) at 10uM” value is given as 12.4%.

As to `COc1cc(C(=O)NCC(C)(C)CNC(=O)c2cc(OC)c(OC)c(OC)c2)cc(OC)c1OC`, the “hERG current change (%, negative = inhibition) at 10uM” value came out at 15.6%.

For `COc1ccc(C(=O)C[n+]2ccccc2/C=N/O)cc1.[Br-]`, the “hERG current change (%, negative = inhibition) at 10uM” value is on record as 20.3%.

In the case of `COc1ccc2[nH]c(O)c(N=NC(=O)Cc3cccs3)c2c1`, the “hERG current change (%, negative = inhibition) at 10uM” value is listed as -22.3%.

`CCOc1ccc(N=C2NC(=O)CS2)cc1`: the “hERG current change (%, negative = inhibition) at 10uM” value came out at 7.94%.

Turning to `COCCC1CCCCN1C(=O)c1ccc(OC2CCN(C(C)=O)CC2)c(OC)c1` (centres unmarked), the “hERG current change (%, negative = inhibition) at 10uM” value was 22.6%.

With `CC(C)Sc1nnc(SCC(=O)N(C)C2CCS(=O)(=O)C2)s1` (centres unmarked), the “hERG current change (%, negative = inhibition) at 10uM” value is given as -1.49%.

With `CCCn1c(N)c(C(=O)CSc2nnc3n2CCCCC3)c(=O)n(C)c1=O`, the “hERG current change (%, negative = inhibition) at 10uM” value is reported as 4.35%.

With `O=C(c1ccccc1-c1nc(-c2ccc(Cl)cc2)no1)N1CCCC1`, the “hERG current change (%, negative = inhibition) at 10uM” value is listed as 0.639%.
